Measurements as given in the supplement of paper PMC11417369.
± gives the standard deviation of the averaged measurements. This is one part of the list.

Each sequence was assayed on PfAP2-I AP2 domain 3 (GST-tagged) (assay: gcPBM binding intensity (ln(normalized median fluorescence intensity)); higher = stronger DNA binding).
In short: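 GST-tagged P. falciparum DNA-binding domains produced in E. coli were incubated for 1 h on an Agilent 4 × 180k array of primer-extended double-stranded 36-bp intergenic genomic probes with negative controls. Binding intensity is the highest Masliner-normalised natural-log median intensity across replicate spots of either probe orientation, with bound protein detected by Alexa488 anti-GST antibody at 488 nm.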

Sequence | gcPBM binding intensity (ln)
TAACATAATATAGACACACACATGTACATATGCCAA [CACACA_site1842] | 7.78 ± 0.41
TAAAAAAATAAATATACACACATATATAAATATGTA [CACACA_site6641] | 7.22 ± 0.24
GTTATTTATAGACACACACACATGCATGCACATATA [CACACA_site6204] | 9.01 ± 0.52
CATATATATTTGTTCACACACACACCCAAAAAAAAA [CACACA_site2476] | 8.27 ± 0.33
CACACCCACAGACACACACACACATATATATATATA [CACACA_site363] | 9.45 ± 0.38
ATATATATATATATTTGTACATATATACATAAAATT [XGTACX_site359] | 9.38 ± 0.4
GAAAAAGTTATAAATTGTACTAAATATTAAATATTG [XGTACX_site7890] | 7.46 ± 0.32
TTTAAAATGGGACTTTGAAAAAAAAAAAAAAAAACA [TGCATGCA_negctrl_site111] | 7.78 ± 0.42
TATAGGTATGTATGTACACACAAAAAATGGAATATA [CACACA_site7704] | 8.01 ± 0.41
TATATATATATATATTGTACATAATGTATATATGTT [XGTACX_site3448] | 9.43 ± 0.66
CATATGTTCATCATAGCACACATATATAAATTACAA [CACACA_site9177] | 7.83 ± 0.5
AAAAAAAAAAAAAGGTGTACATGCAAAATAAATTCT [XGTACX_site4592] | 8.56 ± 0.35
AAATAAATAAGAAACGCATGCATATATAATATATAA [TGCATGCA_site326] | 7.7 ± 0.74
TTTATTATCGTTCTCATACACACAAAATATACATAC [CACACA_site2642] | 8.12 ± 0.53
TAGGCGTTTAATAAAAGTACCCACACATATATTATT [XGTACX_site1932] | 7.68 ± 0.49
CATAAATTAATAGTCACACACGTATTTTTTATATAT [CACACA_site2526] | 7.62 ± 0.49
ATTTAACAACTTCAAACACACAATATATATATATAT [CACACA_site2093] | 9.45 ± 0.55
AATTCAAATATAAATACACACACATAGCTACAAAAT [CACACA_site9386] | 7.81 ± 0.69
AAATATATATGTGGGGGTACTAATAAAAAAACCCCT [XGTACX_site2657] | 8.25 ± 0.37
TTACACAAACAAATTATGGACACATAAGTAAAAGGA [CACACA_negctrl_site1622] | 8.21 ± 0.76
TGAAAAAAAAAAAAAAAAAAAAGAAAAAAAAAAAAA [CACACA_negctrl_site709] | 7.82 ± 1.2
TATAATTCATATGAAACACACATTTATTTTAATTAC [CACACA_site3686] | 7.52 ± 0.59

Sequence | gcPBM binding intensity (ln)
GAAAAAAGAAAAAAAAGTACATATATTTAATAAGAC [XGTACX_site6912] | 8.13 ± 0.45
TTATCCATAAAAAAGTGTACGCACTAAAATTGAAAA [XGTACX_site5460] | 9.4 ± 0.099
ATTAAAACCAATTAAAAAAAATTTATAATGGAAGCA [TGCATGCA_negctrl_site273] | 7.57 ± 0.35
GAGATAAAATAAAACACACACATATATATATATAAT [CACACA_site5246] | 7.68 ± 0.37
AATGACTAAATTTAAACACACAAGGGGAGTTTACTT [CACACA_site918] | 7.51 ± 0.86
TATTATTGTTGTTCATGTACACACTATAATAAAAGC [XGTACX_site8957] | 8.16 ± 0.24
AATAAATAAGCACATACACACATACATACATACATA [CACACA_site6075] | 8.49 ± 0.27
TTGTATTTTTAAATGACACACACATATATATATATA [CACACA_site8481] | 9.32 ± 0.41
AAGTTATAAAAATAAAGTACAAAGTAGCTATTTTTT [XGTACX_site3144] | 7.62 ± 0.45
GACTTTTCATTTATAGTGCAAGTTTTTTTTTTTTTT [GTGCAC_site9698] | 9.69 ± 0.28
ATAAATATAAAAAAATGTACATATAGTAATACATAC [XGTACX_site508] | 7.62 ± 0.52
GAAATAAAAAGAAATGCATGTAATTTTTTTTTTTTT [TGCATGCA_site928] | 7.61 ± 0.83
ATAAGTATAAGAATCAGTACACAGTTTCTACATACT [XGTACX_site5834] | 7.56 ± 0.51
TATATATCATTTAAAACACACAAAAAAAAAAGTTAT [CACACA_site6191] | 7.85 ± 0.55
TTATTTGTATCCATTTCACACATTTTATATAGTATC [CACACA_site5989] | 7.97 ± 0.77
TTTTTTGTTATGCGGGTGCATATAATAATGTGATGA | 10.9 ± 0.89
TTTATCAAAAAAAAAAAAAAAAAAAAAAAAAATTGT [CACACA_negctrl_site176] | 7.49 ± 0.69
TTATGTGCTTTAAAAGTGCATTTTTTTTTTTTTTTT | 10.6 ± 0.19
TATATGTTTTATAAATGTACATATACTTAAATATTT [XGTACX_site4753] | 7.71 ± 0.28
ACTATTAAGAATAAAGAAATATGTAATTGTATTTAA [CACACA_negctrl_site516] | 7.43 ± 0.59
AATACATAATAACGTTGTACAAAAATTATAATACAT [XGTACX_site6508] | 8.14 ± 0.54
TATAAATAAATGTGTACACACATTAAAATCAAACGT [CACACA_site2340] | 8.32 ± 0.042

Sequence | gcPBM binding intensity (ln)
TTTTTTTTTTTTTTTACACACAAATGTATACTATAT [CACACA_site1787] | 8.21 ± 0.49
TATTAAATATTCATATGTACATATAGTTTATAAATT [XGTACX_site7455] | 7.88 ± 0.29
ATATATGTATGTTAGACACACATATTATAATATGTT [CACACA_site116] | 7.61 ± 0.57
AAAACGGATTCTTTATAAATAAATAAATAAATATAA [XGTACX_negctrl_site157] | 7.52 ± 0.42
AATACATACACAAATACACACACAAATACATACACA [CACACA_site8134] | 7.96 ± 0.3
GGACTTAAATAAAATGGTACAGAATTTATATATATT [XGTACX_site8214] | 7.63 ± 0.51
TAATGGAATACATATAGTACATAATATTACATACAT [XGTACX_site5737] | 7.65 ± 0.48
TTTTAAAAATTAAAAAAATTAAATGTAAAAAAATGA [CACACA_negctrl_site861] | 7.55 ± 0.69
ATATATGTATATGTGTGTACATATATGTTTATTATT [XGTACX_site6043] | 7.78 ± 0.42
TTTTTTTTTTTTTATTGTACTAGTAGATATATATAC [XGTACX_site3463] | 8.08 ± 0.71
CCAATATATACATATATATAGTTATATATATTTCCT [TGCATGCA_negctrl_site38] | 7.42 ± 0.36
GTGTCAAATTTTATAACACACAAAAGATTATATAAG [CACACA_site4086] | 7.76 ± 0.48
TCCTCGCGTAATACTTTTCAAATAAAAAAAATAAAA [TGCATGCA_negctrl_site403] | 7.82 ± 0.22
ATTAAAAATTAATATAAACACACAAAAATTAATAAA [CACACA_site8019] | 7.64 ± 0.68
AAACATACTTGATGCAGTACACATTATAAGCACATA [XGTACX_site3359] | 9.19 ± 0.2
CATATGTATATGACTACACACAAGGGTGTACAGATA [CACACA_site4776] | 8.05 ± 0.26
TATTATTCTGTATTTGCATGTGATCATATATATGTA [TGCATGCA_site1053] | 7.76 ± 0.6
TATATAACATAATATACACACATTATGTGCGTAATT [CACACA_site4073] | 8.91 ± 0.23
GTATATCATTTTGGGGTGCTTAAAAATAATGAATAC | 10.4 ± 0.46
TTTTTTTTTTTTTATTGTACAAAGGTATAAAATAAT [XGTACX_site2396] | 8.07 ± 0.45
CATACATACAGACACACACACATATATATATATATA [CACACA_site2920] | 9.41 ± 0.54
AACATAAAAATGAACATACACACATATATATATATA [CACACA_site2497] | 9.35 ± 0.32

Sequence | gcPBM binding intensity (ln)
ATAAAAATACAGTTAACACACATGTGGATATATATG [CACACA_site3771] | 8.13 ± 0.46
AAACAAAAAAGTAAGAAAAGGGATGATTGGATCCAA [CACACA_negctrl_site1230] | 7.35 ± 0.78
AGATATTATAATTAATGTACAAAAAGAAAAAATAGA [XGTACX_site8964] | 7.86 ± 0.64
GTATTATCTTTTAATAGTACATATTTTTTTGAAACA [XGTACX_site4050] | 7.61 ± 0.54
CATATAATATTTGAAACTATATATAAATATAAGGTA [TGCATGCA_negctrl_site19] | 7.32 ± 0.39
AATATATTTTTATATTGTACAAAAGAAAAAAAATAT [XGTACX_site1689] | 8.05 ± 0.48
ATTTATTCATAGACAACAAGAAAAAAAAAAAAAATT [CACACA_negctrl_site1168] | 7.54 ± 0.57
AGTTTTCCATGTTAATGTACTTAACAATACCATAAT [XGTACX_site209] | 8.19 ± 0.6
TATATCCATATTGTATGTACACATATAATACCAATG [XGTACX_site7230] | 7.94 ± 0.35
ATATAATGATAATATTGTACATGTTATATTTCAATA [XGTACX_site8645] | 7.66 ± 0.34
ATATATTTAATATTCACACATAATTATTTTTACTCT [CACACA_site5438] | 7.87 ± 0.65
TTGTAATATCTTGTCACACATATATATATATATATA [CACACA_site4937] | 9.38 ± 0.35
TATAGATAAGAATATGCACACATTTTATTTTTTTTT [CACACA_site1982] | 8.6 ± 0.085
TTTTTAATTTATTAAGAAGTAAAGAATAACTCTTTT [TGCATGCA_negctrl_site101] | 7.17 ± 0.35
AAACATTAAAATAACTCACACATTTTTCTAGTCTTC [CACACA_site4612] | 7.53 ± 0.67
TCAAATTACTAAAATACACACATATTATAGATATAT [CACACA_site7233] | 7.46 ± 0.53
TGTATATATAATAAAACACACATTTTTAATGTGCTC [CACACA_site1437] | 7.36 ± 0.46
GTTTTATAAAAAGGCGCACACATATACATAAATATA [CACACA_site1864] | 8.47 ± 0.37
GATAAAGTACTTTATACACACAAATATTTATATATA [CACACA_site3974] | 7.86 ± 0.43
AAAAAGAAAATATATACACACCAAAAAAAAAAAAAA [CACACA_site5698] | 7.84 ± 0.79
TAAATACAAAAATGCACACGAAAAGTAATATATATA [CACACA_site6151] | 8.76 ± 0.71
TAATATGACATAAGGGGTACTATATATATATATATT [XGTACX_site386] | 7.88 ± 0.52
